Laboratory results published in PubChem BioAssay (NCI).
Values joined by “and” are separate entries in the source; they are usually repeats but may differ in a detail not shown here. Identical values can stand only once.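 Assay format: 96-well plates, 48-hour exposure. GI50 is the concentration that inhibits growth by half. Definition used: TGI = concentration required for complete inhibition of growth.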

System: NCI-H322M lung
Assay: inhibition of tumour cell growth, NCI panel, 48 h

Row | SMILES | TGI | GI50
1 | Cc1ccc(S(=O)(=O)NC(CCC(=O)NNc2ccccc2)C(=O)NNc2ccccc2)cc1 (centres undefined) | > 100 µM | –
2 | COc1ccc2c(c1)[n+](=O)c(C(=O)c1cccs1)c(C(F)(F)F)n2[O-] | 15.1 µM | 2.13 µM
3 | C=CC(=O)N1CCC(c2ccc(C(N)=O)c(-c3ccc(Oc4ccccc4)cc3)n2)CC1 | > 100 µM | 22.8 µM
4 | COc1ccc(-n2c(=O)c3[nH]c(=S)[nH]c3n(-c3ccc(OC)cc3)c2=S)cc1 | > 100 µM | –
5 | CCCCc1ccc(Nc2ncc3ncn(COCCO)c3n2)cc1 | > 100 µM | –
6 | Oc1c(C(Nc2ccccc2Br)c2ccccc2)ccc2cccnc12 (centres undefined) | > 100 µM | 4.57 µM
7 | CC(C)C1CO[C@]2(C)CCC(=O)N12 (some centres undefined) | > 100 µM | –
8 | O=C1NC(=O)c2ccccc2/C1=C/c1ccc2c(c1)OCO2 | > 100 µM | –
9 | COc1cc(-c2nc3ccccc3s2)ccc1OCCCCOc1cc2c(cc1OC)C(=O)N1CCC[C@H]1C=N2 | 10.6 µM | 3.01 µM
10 | CN(C)C(=O)Nc1nc2cc(Cl)c(Cl)cc2[nH]1 | > 100 µM | 10.2 µM
11 | COC(=O)[C@@H]1CS(=O)(=O)C(C(C)C)N1C(C)=O (some centres undefined) | > 100 µM | –
12 | COC(=O)C1CC2(C)C=CC1N(C(=O)OCc1ccccc1)C2 (centres undefined) | > 100 µM | –
13 | ClC(Cl)=C(Cl)C1(Cl)CC1COCc1ccccc1 (centres undefined) | > 100 µM | –
14 | CN1C(=O)c2ccc3ccccc3c2C1=O | > 100 µM | –
15 | CCn1c(=O)c2nc(SC)sc2n(-c2ccc(C)cc2)c1=O | > 100 µM | –
16 | O=c1[nH]c(=O)n(C2CC(O)C(CO)O2)cc1Oc1ccccc1 (centres undefined) | > 100 µM | –
17 | COc1ccc(-c2c(C)c(C(=O)O)nc(-c3ccc4c(O)c(OC)c5c(c4n3)=NC(C)(C)N=5)c2N)c(O)c1OC | 73.1 µM | –
18 | O=c1[nH]nc(-c2ccccc2)n1/N=C/c1ccc([N+](=O)[O-])o1 | 27.4 µM | –
19 | ClC(Cl)(Cl)C1CCOC1n1nnc2ccccc21 (centres undefined) | > 100 µM | –
20 | OC1(c2ccccc2)C2CC=CC2C1(c1ccccc1)c1ccccc1 (centres undefined) | > 100 µM | –
21 | C#CC[C@@]12CC(=O)C[C@@H]1CCC1(C2)OCCO1 (tested in a mixture with another compound) | > 100 µM | –
22 | CCO/C=C1\N=C(c2ccc(Cl)c(Cl)c2)OC1=O | > 100 µM | –
23 | O=C1C2C(C(=O)N1c1ccccc1)C1c3ccccc3C2C2C(=O)N(c3ccccc3)C(=O)C21 (centres undefined) | > 100 µM | –
24 | NC(CCCC(N)P(=O)(O)O)C(=O)O (centres undefined) | > 100 µM | –

Row | SMILES | TGI | GI50
25 | O=[N+]([O-])/C=C/c1c(Cl)cccc1Cl | 30.6 µM | –
26 | C#CC1(O)CCC2C3CCc4cc(Oc5nc(F)nc(-c6c7ccccc7c7n6CCS7)n5)ccc4C3CC[C@@]21C (some centres undefined) | > 100 µM | –
27 | Fc1cccc(F)c1C1SCc2nc3cc(Cl)c(Cl)cc3n21 (centres undefined) | > 100 µM | –
28 | Cc1ccc(/C=C/c2c(C(=O)/C=C/c3ccccc3)c(C)nc3ccccc23)cc1 | 3.8 µM | 1.71 µM
29 | COc1ccc([C@H](CC(=O)O)N2CCN(CCCc3ccc4c(n3)NCCC4)C2=O)cn1 | > 100 µM | > 100 µM
30 | Cc1c(C(=O)c2ccc(N)c3ccccc23)c2ccccc2n1CCN1CCOCC1 | > 100 µM | –
31 | CCOC(=O)c1ccc(Nc2nc3ccccc3nc2-c2cccs2)cc1 | > 100 µM | –
32 | COc1ccc(C#Cn2nnc3ccccc32)cc1 | > 100 µM | –
33 | CCCCC(SC(=S)N1CCCC1)C(=O)Nc1nc(CC(=O)OCC)cs1 (centres undefined) | > 100 µM | > 100 µM
34 | O=C(O)CCC(=O)OCN1C(=O)C2C3C=CC(C2C1=O)C1C2C(=O)N(COC(=O)CCC(=O)O)C(=O)C2C31 (centres undefined) | > 100 µM | –
35 | CNC(=O)NCC1OC(n2cnc3c(NC(=O)Nc4ccccc4)ncnc32)C(O[Si](C)(C)C(C)(C)C)C1O[Si](C)(C)C(C)(C)C (centres undefined) | > 100 µM | 6.86 µM
36 | O=C(COc1ccc(OCC(=O)N2C(=O)CC(=O)N(c3ccc(Cl)cc3)C2=S)cc1)N1C(=O)CC(=O)N(c2ccc(Cl)cc2)C1=S | 56.3 µM | –
37 | O=C1COc2cc(N3CCN(c4cccc(C(F)(F)F)c4)CC3)ccc2N1 | > 100 µM | –
38 | CCC1(O)CC(OC2CC(N(C)C)C(OC3CC(O)C(OC4OC(C)C(=O)C=C4N)C(C)O3)C(C)O2)c2c(cc3c(c2O)C(=O)c2c(O)cccc2C3=O)C1C(=O)OC (centres undefined) | 10.1 µM | –
39 | NC(=N\N=C/c1ccc(O)cc1)/C(N)=N\N=C/c1ccc(O)cc1 | > 100 µM | > 68.6 µM
40 | C/C(CC(=O)Nc1cccc(Cl)c1C)=N\NC(N)=S | > 100 µM | –
41 | Nc1cc2c(c3ccccc13)C(CCl)CN2C(=O)c1cc2cc(NC(=O)Nc3ccc4[nH]c(C(=O)N5CC(CCl)c6c5cc(N)c5ccccc65)cc4c3)ccc2[nH]1 (centres undefined) | 4.74 µM | –
42 | COc1cc(CNc2nc3c(N)cc(C(F)(F)F)cc3nc2-c2ccccc2)cc(OC)c1OC | > 100 µM | > 100 µM
43 | C#C[C@]1(O)CC[C@H]2[C@@H]3CC=C4c5sc(Nc6cc(F)ccc6F)nc5CC[C@]4(C)[C@H]3CC[C@@]21C | 4.83 µM | 1.85 µM
44 | CC1CC/C(=C\c2ccc(F)cc2)C2=C1C(c1ccc(F)cc1)N1C(=O)CSC1=N2 (centres undefined) | > 100 µM | –
45 | COC(=O)c1cc(-c2ccccc2)[nH]c1N/N=C/c1c(Cl)cccc1Cl | 23.3 µM | 0.521 µM
46 | CC(C)(C)OC(=O)NC12C3C4C1C1C2C3C41NC(=O)OC(C)(C)C (centres undefined) | > 100 µM | –
47 | Cc1c(CNc2ccc(C(=O)NC(CCCNC(=O)c3ccccc3C(=O)O)C(=O)O)cc2)cnc2nc(N)nc(N)c12 (centres undefined) | 4.28 µM | –
48 | O[C@@H]1C=C[C@]23CCN(Cc4cc5c(cc42)OCO5)[C@@H]3C1 | > 100 µM | –

Row | SMILES | TGI | GI50
49 | O=c1c2c([nH]c3nccn13)CCC2 | > 10 µM | –
50 | Clc1sc(Cl)c2c1[C@@H](Cl)C[C@@H]2Cl | > 100 µM | –
51 | N#CC1(C#N)C(C#N)(C#N)C1(C#N)C(N)=O | > 100 µM | –
52 | COc1ccc(C(=O)Cn2c(C(=O)c3ccccc3)nc3ccccc32)cc1 | > 100 µM | 37.4 µM
53 | CC(=O)O[C@H]1CC[C@@]2(C)C(=CC[C@@H]3[C@@H]2CC[C@]2(C)C(=N/O)/C(=C\c4ccccc4)C[C@@H]32)C1 | 61.2 µM | –
54 | C(/C=N/NC1=NCCCCN1)=N\NC1=NCCCCN1 | > 100 µM | –
55 | CC(C(=O)OCc1ccccc1)N(Cc1ccccc1)Cc1ccccc1 (centres undefined) | > 100 µM | –
56 | O=C1CCc2c(sc3[nH]c(=S)n(-c4cc(C(F)(F)F)cc(C(F)(F)F)c4)c(=O)c23)C1 | 28.7 µM | 0.578 µM
57 | O=C(CCN1CCCC1)Nc1ccc2c(NCc3ccccc3)c3ccccc3nc2c1 | 1.72 µM | 0.359 µM
58 | CN(C)Cc1ccc(-c2cc3onc(-c4ccccc4)c3c(=O)n2C)cc1 | > 100 µM | –
59 | C1=C(c2ccccc2)C(N2CCOCC2)Oc2ccccc21 (centres undefined) | > 100 µM | –
60 | CC(C)(C)OC(=O)[C@@H]1CCC(=O)N1C1(c2ccccc2)c2ccccc2-c2ccccc21 | > 100 µM | –
61 | COc1ccc(-c2cc(=O)n(-c3nc4ccccc4[nH]3)[nH]2)cc1OC | 86.6 µM | 9.94 µM
62 | Nc1ccc(-c2nc3ccccc3s2)cc1Cl | > 100 µM | –
63 | COC(C/C(=C/CO[Si](C(C)C)(C(C)C)C(C)C)C(=O)N(COCC[Si](C)(C)C)c1ccccc1I)OC | > 100 µM | –
64 | COc1cc2cc(C(=O)N3CC(COS(C)(=O)=O)c4ccc(NC(=O)OCc5ccccc5)cc43)[nH]c2c(OC)c1OC (centres undefined) | > 100 µM | –
65 | CCCCCCCCCCCC1=NC(C)(C)CN1C(C)(C)CO | 31.2 µM | 6.19 µM
66 | Cc1ccc(S(=O)(=O)N/N=C(\c2nc3ccc(Cl)cc3[nH]c2=O)C(O)c2ccco2)cc1 (centres undefined) | > 100 µM | –
67 | Cc1cn2c(/C=C3/C(=O)Nc4c3ccc3ccccc43)c(C(F)(F)F)nc2s1 | > 100 µM | 3.95 µM
68 | CNc1nnc(CCCCCCCCc2nnc(NC)o2)o1 | > 100 µM | –
69 | CCOC(=O)N1C/C(=C\c2ccccc2)C(=O)/C(=C/c2ccccc2)C1 | 55.9 µM | –
70 | CC1C(NNC(N)=O)Oc2cc3c(cc2C1c1ccccc1O)OCO3 (centres undefined) | > 100 µM | –
71 | c1nc(NCCc2cnc[nH]2)c2[nH]cnc2n1 | > 100 µM | –
72 | Cc1ccc2nc3ccccc3c(NCc3ccc(Cl)cc3)c2c1 | 11.5 µM | 5.46 µM

Row | SMILES | TGI | GI50
73 | CN(C)c1ccc(Nc2c3ccccc3nc3ccccc23)cc1 | 5.11 µM | 1.62 µM
74 | O=C(/C=C(\O)C(=O)O)/C=C(\O)c1ccccc1 | > 100 µM | > 1 µM
75 | CCC(=O)N1C/C(=C/c2ccc(Cl)cc2)C(=O)/C(=C/c2ccc(Cl)cc2)C1 | 4.5 µM | 2.11 µM
76 | N#C/C(=C1\SCC(=O)N1c1ccccc1)c1nc2ccccc2[nH]1 | > 100 µM | –
77 | N#Cc1nc(-c2ccc(F)cc2)oc1S(=O)(=O)N1CCCCC1 | 27.6 µM | 14.5 µM
78 | O=[N+]([O-])c1cc[n+]([O-])c2ccccc12 | 0.405 µM | 0.104 µM
79 | CCN1C/C(=C\c2ccc(Cl)cc2)c2nc(N)c(C#N)c(-c3ccc(Cl)cc3)c2C1 | > 100 µM | –
80 | CCCn1c2c(c3c(O)cccc31)C(=O)c1ccccc1-2 | > 100 µM | 19.2 µM
81 | COC(=O)CCC(NC(=S)N/N=C(\C)c1ccc[nH]1)C(=O)OC (centres undefined) | > 100 µM | –
82 | COc1cccc(N=N/C(=N/NC(=O)c2ccc(C)cc2)c2ccc(N(CCC#N)CCC#N)cc2OC)c1 | 36.8 µM | –
83 | COC(=O)[C@H](Cc1c[nH]c2ccccc12)NP(=O)(OCCC#N)OCC1OC(n2cc(C)c(=O)[nH]c2=O)CC1N=[N+]=[N-] (some centres undefined) | > 100 µM | –
84 | O=C(c1ccccc1)c1ccc2nc(-c3c(Cl)c(Cl)c(Cl)c(Cl)c3-c3nnc(-c4ccccc4)o3)[nH]c2c1 | > 100 µM | –
85 | Cc1ccc(S(=O)(=O)NC(=O)NC(Cc2ccc(O)cc2)C(=O)O)cc1 (centres undefined) | > 100 µM | –
86 | Cn1nc2ccc(Nc3cc(=O)[nH]c4ccc5nn(C)nc5c34)cc2n1 | > 100 µM | –
87 | COC(C)(C)[C@@H](O)[C@H](O)C[C@H](C)C1=C2CC[C@@H]3[C@@]4(C)CC[C@@H](OC(C)=O)C(C)(C)[C@@H]4C[C@@H](OC4OC(COC(C)=O)C(O)C(O)C4O)[C@@]3(C)[C@]2(C)CC1 (some centres undefined) | 25.5 µM | 12.8 µM
88 | C=C(C)[C@@H]1CCC=C2CC[C@]3(C)[C@H](CC[C@@H]4[C@@]5(C)CCCNC(C)(C)[C@@H]5CC[C@]43C)[C@H]21 | 5.38 µM | 2.18 µM
89 | NS(=O)(=O)c1nc(S(=O)(=O)O)c2[nH]cnc2n1 | > 100 µM | –
90 | CCCn1c(SCCSc2c3ccccc3c(-c3nc(F)nc(F)n3)n2CCC)c2ccccc2c1-c1nc(F)nc(F)n1 | > 100 µM | –
91 | COc1cc2c(cc1OC)-c1ncc3c(OC)ccc(OC)c3c1C2 | 41.3 µM | 13.1 µM
92 | CN(Cc1cnc2nc(N)nc(N)c2n1)c1ccc(C(=O)NC23CC4CC(CC(C4)C2)C3)cc1 | 32.3 µM | –
93 | O=C(O)C[C@H](O)C[C@H](O)/C=C/c1c(C2CC2)nc2ccccc2c1-c1ccc(F)cc1 | > 100 µM | 4.19 µM and 4.06 µM
94 | COc1ccccc1-n1c(=O)n(C)c(=O)n1C(C)(C)C | > 100 µM | –
